Results from the supplement of paper PMC3334620.
Over roughly 33,000 sequences, “E-score (-0.5 to 0.5)” has its median near -0.036; the highest 2% begin near 0.37. The list shows a part of the results.

What follows are sequences tested against T1, Yer064c (UniProt P40041) (assay: PBM E-score (8-mer binding enrichment) (E-score (-0.5 to 0.5)); higher = stronger / more preferred TF binding; most listed sequences are background and not binding sites). Details: protein concentration: 200 nM; construct: GST-full length.
T1 sequence: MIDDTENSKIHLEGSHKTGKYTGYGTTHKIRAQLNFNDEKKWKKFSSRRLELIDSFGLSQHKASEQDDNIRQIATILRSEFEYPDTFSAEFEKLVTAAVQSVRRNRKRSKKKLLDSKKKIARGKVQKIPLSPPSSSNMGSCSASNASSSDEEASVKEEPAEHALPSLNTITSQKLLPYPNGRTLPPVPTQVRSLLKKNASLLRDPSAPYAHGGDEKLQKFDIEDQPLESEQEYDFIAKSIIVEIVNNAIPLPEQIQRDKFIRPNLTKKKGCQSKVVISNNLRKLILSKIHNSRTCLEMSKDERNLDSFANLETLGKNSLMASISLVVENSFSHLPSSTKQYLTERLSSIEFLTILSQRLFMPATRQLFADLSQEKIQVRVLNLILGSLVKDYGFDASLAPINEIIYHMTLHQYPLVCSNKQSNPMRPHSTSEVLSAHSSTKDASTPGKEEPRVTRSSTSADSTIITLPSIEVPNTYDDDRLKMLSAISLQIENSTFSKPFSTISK
How it was run: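 For each ungapped eight-base word taken together with its reverse complement, the Universal PBM Analysis Suite assigned an E-score. Binding data came from GST-tagged yeast transcription factors, applied at about 100-200 nM, on universal all-10-mer Agilent arrays made double-stranded by primer extension. Fluorescent anti-GST marked bound protein, and scans were normalised with masliner.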

Row | Sequence | PBM E-score
1 | ACGTGCGC | -0.163
2 | TAAAAAGA | 0.0523
3 | ACGACGAC | 0.0346
4 | ATGTGTAA | 0.284
5 | CAGTGCGC | -0.294
6 | GAACATCA | -0.046
7 | GCTCGTCC | -0.0981
8 | AGGCTATG | -0.0211
9 | CCAGGCGC | -0.114
10 | GAGTTAAC | 0.132
11 | CGTGATTA | 0.393
12 | AACCAGCT | 0.0589
13 | AGTCAGAT | 0.427
14 | CTGGAACC | -0.0767
15 | ACCCCAGG | -0.0425
16 | CTTAACGC | -0.0621
17 | CGTTGACC | -0.0892
18 | CCAATGGA | -0.00691
19 | CAGCTGGC | -0.0977
20 | GAAGCATC | -0.253
21 | CGAAATAC | -0.109
22 | GTTGCGTA | -0.0379
23 | AAGCTATA | -0.00366
24 | CAAGGGTC | -0.325
25 | AGCAAATA | -0.157

Row | Sequence | PBM E-score
26 | GGCTCTAA | -0.054
27 | CAGCCATG | 0.113
28 | AGGTCAAG | -0.0459
29 | CCCGCTTA | -0.012
30 | GCAGCTCC | -0.211
31 | CGTAACGC | -0.199
32 | TACTAGAA | 0.112
33 | GGTTAGAA | 0.00612
34 | ATCTCGTA | 0.0955
35 | CGAGGTGC | -0.148
36 | GCTAGCTA | -0.166
37 | AACGGAGT | 0.152
38 | ACGTAAGC | -0.0989
39 | ATGGAGAC | 0.174
40 | ATTATATC | -0.0643
41 | CTCGAGTC | 0.37
42 | CATGCACC | -0.0155
43 | GAGCCCAA | -0.0756
44 | GGTATGAA | 0.101
45 | AAGATTGC | 0.0129
46 | CTGCGTGA | 0.14
47 | GGGTTGCA | -0.0659
48 | CGGTATTC | -0.252
49 | CCAGATAG | 0.0194
50 | AAAGTTAT | -0.007

Row | Sequence | PBM E-score
51 | AGTAACTC | 0.136
52 | GTCCCACA | -0.0159
53 | ATGTGCTA | 0.0639
54 | AACTTGAG | 0.205
55 | CGACCATC | -0.247
56 | CATCCACA | -0.0659
57 | GGACAGGA | -0.084
58 | ACGCTAAG | -0.133
59 | GTAGTACA | 0.109
60 | ATCACGAT | 0.249
61 | ATCGAAGG | -0.0239
62 | GTGTGAAA | -0.00015
63 | CCCACCGA | -0.0423
64 | GGCAGATA | -0.225
65 | GCCGTCGC | -0.269
66 | CTATCTGA | 0.17
67 | CAGGTCAC | -0.174
68 | CGATTTCC | -0.0704
69 | ACGCTTTA | -0.165
70 | TAATCTGA | 0.319
71 | GGTTAAGA | 0.101
72 | ACGCAGAG | 0.0941
73 | CAGGCGAC | 0.0705
74 | GGCGATTA | 0.206
75 | AGCAAAGG | -0.0425

Row | Sequence | PBM E-score
76 | AATGCTAA | -0.102
77 | AGTGTGGG | -0.117
78 | CTTTTATC | -0.029
79 | GAAACTCC | -0.348
80 | CTTGTCCC | -0.23
81 | ATTTCGAA | 0.0289
82 | GGTGAAAC | -0.0236
83 | AGTAAGAC | 0.23
84 | ACATGACC | 0.047
85 | TCAGATCA | 0.0817
86 | GTACGAGA | 0.0415
87 | CCGAAGAA | -0.0331
88 | ACGAACCC | -0.252
89 | TATACTCA | 0.317
90 | GCTCCTCA | -0.2
91 | ATAATTTC | 0.0475
92 | AGTCAGTA | 0.42
93 | GTGAGACA | 0.332
94 | ATCCTATC | -0.128
95 | GCCAAACC | -0.229
96 | AGTCCTTC | 0.326
97 | ATAGGAAA | 0.0679
98 | CCCATCCA | -0.112
99 | CGATGCCG | -0.16
100 | CGAGCGGC | -0.145

Row | Sequence | PBM E-score
101 | CAAAGCAA | -0.101
102 | ACTCAACC | 0.322
103 | GCCGGCCA | -0.172
104 | ACCCCAAT | -0.114
105 | AATTCCGG | -0.262
106 | AGTCAGTC | 0.442
107 | GAGCTAAC | -0.123
108 | CCGGCGTC | -0.209
109 | ACCGCATA | -0.00062
110 | AGTTGACA | 0.0818
111 | CAATATAC | -0.00478
112 | CTCGCGTC | 0.037
113 | ACACCGAT | 0.025
114 | ACAGACAC | 0.0396
115 | CCTACATC | -0.331
116 | GCTCATCA | 0.184
117 | CGTGCTTA | 0.0616
118 | ACTATTCT | 0.0667
119 | GCCATCCC | -0.0412
120 | AGTGCTAC | 0.021
121 | CAATAACA | -0.171
122 | CCAAGGAC | -0.0257
123 | CAAGCTGC | -0.138
124 | AGAATTGC | -0.164
125 | TGAGCAAA | 0.114

Row | Sequence | PBM E-score
126 | TCGATCAA | -0.00739
127 | AGAACGCA | -0.167
128 | TCTGTCAA | -0.0702
129 | CTGTCTGA | 0.108
130 | ATGTCCGC | -0.263
131 | TCGGACAA | -0.028
132 | GACATCGC | -0.275
133 | ATAAGGTG | 0.133
134 | ATGGTCCA | -0.169
135 | CGTGCATA | -0.0202
136 | TTAGATAA | 0.136
137 | CACAAAAC | -0.0441
138 | CCCCATCC | -0.157
139 | GAATTATC | 0.0224
140 | CAACAGTC | 0.318
141 | CGGTTTCC | -0.127
142 | AATCACGA | 0.347
143 | CTCGTATC | -0.0383
144 | AGGTACAT | -0.0479
145 | CCCTAGGA | -0.032
146 | TCGCGGCA | -0.14
147 | CACGACTG | 0.238
148 | CCTACGGC | -0.142
149 | ATGCGATC | -0.12
150 | AAACATAC | -0.0564

Row | Sequence | PBM E-score
151 | AGTCCTAC | 0.345
152 | GATCATAA | 0.213
153 | GGAGGTCA | 0.0981
154 | AGGACCAT | 0.0303
155 | CATTAATC | 0.271
156 | CGAGCTAC | -0.237
157 | AGGTTGCG | -0.0841
158 | TACGGTCA | -0.0997
159 | ACCGTTGC | -0.251
160 | AAATAGGC | -0.292
161 | ATGTCAAG | -0.0582
162 | AGTATGGG | -0.0119
163 | CTAATAGC | 0.056
164 | CCCAAATA | -0.123
165 | TAAATGGA | 0.0193
166 | GAAGACCC | -0.0698
167 | GTATAAAC | 0.0607
168 | AAGTGCGC | -0.106
169 | GAGGCGCA | -0.362
170 | GGAGCCTA | -0.121
171 | CATAAGAA | 0.157
172 | CCACGCAG | 0.0326
173 | GCGAACCA | 0.00685
174 | ATGAAAGG | -0.0528
175 | ATACCGAT | -0.00161

Row | Sequence | PBM E-score
176 | TAAGAAGA | 0.135
177 | AAAGATGC | -0.267
178 | TACCTTGA | 0.102
179 | AATTATAA | 0.0893
180 | CGACTCCC | 0.404
181 | ACCATACT | 0.0817
182 | GGACACCC | -0.167
183 | ACGAAAGT | 0.0566
184 | AAATGAGT | 0.427
185 | GCAAGCGC | -0.214
186 | AACCAATC | 0.0797
187 | TGGACCCA | -0.0371
188 | AAGCGAGC | -0.1
189 | CATGACAG | 0.0747
190 | ATACATAG | 0.187
191 | CTACGCGA | 0.0298
192 | ATAAAACC | 0.0678
193 | AACTTCAA | 0.0587
194 | GTGAAATA | -0.0351
195 | ATAAGAGA | 0.135
196 | CAGCTTAA | -0.00624
197 | GAACCTGA | -0.102
198 | ACACGACT | 0.408
199 | ACCTTCGA | 0.00431
200 | GGACAACA | 0.0223

Row | Sequence | PBM E-score
201 | CATCGCAA | -0.00588
202 | AGATACAT | 0.132
203 | TCACGGGA | 0.17
204 | TGCGCCCA | -0.265
205 | TGACAAAA | -0.0309
206 | GGAAAGTA | -0.0868
207 | AACTGTGA | 0.129
208 | CCCGTCAG | -0.259
209 | ACCCCTCA | -0.217
210 | CTACCCCA | -0.17
211 | ACCGCTCT | -0.114
212 | AGCAGCGG | -0.145
213 | CTGATCTA | 0.0991
214 | GTGCTGTA | -0.00179
215 | CGCTTGTC | -0.24
216 | GAGACCGC | -0.296
217 | CATGAATC | 0.423
218 | CCAGCATC | -0.209
219 | AATCGTAA | 0.115
